{"source": "the supplement of paper PMC3334620", "note": "Whole data set: some 33,000 sequences, median “E-score (-0.5 to 0.5)” near -0.053, cut for the highest 2% near 0.37. Some of the results follow.", "data": [{"target": "Hap1 (UniProt P0CE41)", "sequence (P0CE41 whole entry, the tested form may be a part)": "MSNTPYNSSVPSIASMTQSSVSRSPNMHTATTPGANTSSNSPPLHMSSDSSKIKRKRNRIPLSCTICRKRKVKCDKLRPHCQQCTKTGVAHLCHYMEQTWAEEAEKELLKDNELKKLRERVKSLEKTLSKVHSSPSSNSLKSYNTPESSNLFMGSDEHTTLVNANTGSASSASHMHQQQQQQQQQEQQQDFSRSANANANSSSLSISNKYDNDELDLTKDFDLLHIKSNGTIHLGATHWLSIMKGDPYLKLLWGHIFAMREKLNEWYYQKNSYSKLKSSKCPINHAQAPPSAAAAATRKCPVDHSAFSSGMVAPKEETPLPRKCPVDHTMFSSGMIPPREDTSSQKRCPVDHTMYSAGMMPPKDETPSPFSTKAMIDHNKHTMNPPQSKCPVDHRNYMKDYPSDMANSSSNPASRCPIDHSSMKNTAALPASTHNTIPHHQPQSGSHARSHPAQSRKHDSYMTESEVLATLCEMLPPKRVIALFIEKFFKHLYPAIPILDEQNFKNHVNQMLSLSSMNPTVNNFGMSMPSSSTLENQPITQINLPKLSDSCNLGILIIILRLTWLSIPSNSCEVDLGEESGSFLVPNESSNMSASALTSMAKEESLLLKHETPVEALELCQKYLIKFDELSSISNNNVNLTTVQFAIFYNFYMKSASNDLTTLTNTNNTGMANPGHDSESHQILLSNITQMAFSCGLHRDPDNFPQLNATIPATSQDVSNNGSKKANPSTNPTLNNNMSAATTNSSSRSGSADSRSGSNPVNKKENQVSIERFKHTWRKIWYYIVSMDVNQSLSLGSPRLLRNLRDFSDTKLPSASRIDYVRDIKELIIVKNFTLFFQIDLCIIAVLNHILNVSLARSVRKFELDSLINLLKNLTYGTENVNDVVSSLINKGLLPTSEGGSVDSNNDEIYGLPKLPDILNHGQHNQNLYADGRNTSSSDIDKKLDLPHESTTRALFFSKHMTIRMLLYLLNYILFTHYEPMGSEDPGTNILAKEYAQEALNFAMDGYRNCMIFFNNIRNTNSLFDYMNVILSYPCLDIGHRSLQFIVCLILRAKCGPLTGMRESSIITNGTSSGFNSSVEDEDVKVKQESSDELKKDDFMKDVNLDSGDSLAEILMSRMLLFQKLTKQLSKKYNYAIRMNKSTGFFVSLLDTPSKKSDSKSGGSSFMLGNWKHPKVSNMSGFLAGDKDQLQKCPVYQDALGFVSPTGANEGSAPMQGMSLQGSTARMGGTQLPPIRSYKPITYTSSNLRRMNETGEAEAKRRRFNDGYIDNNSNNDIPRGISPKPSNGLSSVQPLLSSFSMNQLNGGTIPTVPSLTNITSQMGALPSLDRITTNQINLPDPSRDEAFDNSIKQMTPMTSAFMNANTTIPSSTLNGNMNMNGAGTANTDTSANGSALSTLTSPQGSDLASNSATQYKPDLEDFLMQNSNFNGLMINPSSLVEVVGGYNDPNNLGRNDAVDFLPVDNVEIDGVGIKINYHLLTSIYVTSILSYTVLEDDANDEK", "assay": "PBM E-score (8-mer binding enrichment) (E-score (-0.5 to 0.5)); higher = stronger / more preferred TF binding; most listed sequences are background and not binding sites", "conditions": "protein concentration: 200 nM; construct: GST-DNA-binding domain", "in_short": "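Masliner-normalised scans of fluorescent anti-GST signal were the basis for scoring. That signal came from GST-tagged yeast transcription factors applied at about 100-200 nM to double-stranded universal all-10-mer Agilent arrays on fresh or once-stripped slides. Each ungapped eight-base word, pooled with its reverse complement, received an E-score from the Universal PBM Analysis Suite.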", "values": [{"sequence": "CTTCACCC", "PBM E-score": 0.0942}, {"sequence": "GCTAATCC", "PBM E-score": 0.17}, {"sequence": "CACTGGGC", "PBM E-score": 0.00656}, {"sequence": "CTGTGGAA", "PBM E-score": -0.0726}, {"sequence": "CAAGATCG", "PBM E-score": 0.0451}, {"sequence": "CTGTAAGC", "PBM E-score": -0.0848}, {"sequence": "GGTGCATA", "PBM E-score": 0.0387}, {"sequence": "TTGAGAAA", "PBM E-score": -0.245}, {"sequence": "GCGGACCA", "PBM E-score": 0.31}, {"sequence": "ATGTAATA", "PBM E-score": -0.0285}, {"sequence": "CTTGAACA", "PBM E-score": -0.0064}, {"sequence": "CAAGAGCC", "PBM E-score": -0.0186}, {"sequence": "AACGTCGC", "PBM E-score": -0.0144}, {"sequence": "AAGCCGGA", "PBM E-score": 0.413}, {"sequence": "ACTCCACT", "PBM E-score": -0.222}, {"sequence": "CTGCCAGA", "PBM E-score": -0.0778}, {"sequence": "ACAGCTTG", "PBM E-score": -0.179}, {"sequence": "CTTTCACC", "PBM E-score": 0.012}, {"sequence": "TAATGCGA", "PBM E-score": -0.0751}, {"sequence": "ATATACCG", "PBM E-score": 0.33}, {"sequence": "CGCAGCTA", "PBM E-score": 0.166}, {"sequence": "AGTACACC", "PBM E-score": -0.0977}, {"sequence": "AAATATTT", "PBM E-score": -0.148}, {"sequence": "CTGCTGGC", "PBM E-score": -0.144}, {"sequence": "ACCGTCCG", "PBM E-score": 0.381}, {"sequence": "AATTTTCA", "PBM E-score": -0.138}, {"sequence": "GACACTCA", "PBM E-score": -0.0724}, {"sequence": "CCACTCTA", "PBM E-score": -0.231}, {"sequence": "CCGGTGCG", "PBM E-score": 0.342}, {"sequence": "CAGTGGTC", "PBM E-score": -0.135}, {"sequence": "GGTCCTGA", "PBM E-score": 0.012}, {"sequence": "GGTAACAC", "PBM E-score": -0.0637}, {"sequence": "CCTGGTAG", "PBM E-score": -0.177}, {"sequence": "CCTTATAC", "PBM E-score": -0.0633}, {"sequence": "CAGTCACG", "PBM E-score": -0.182}, {"sequence": "CACACGCA", "PBM E-score": -0.123}, {"sequence": "CACACCGG", "PBM E-score": 0.288}, {"sequence": "CCTAAGCC", "PBM E-score": 0.00861}, {"sequence": "CCCGAACC", "PBM E-score": 0.2}, {"sequence": "CAAACCAG", "PBM E-score": -0.174}, {"sequence": "AAGATGTG", "PBM E-score": -0.249}, {"sequence": "ACGCCCAC", "PBM E-score": -0.0707}, {"sequence": "GGACTACC", "PBM E-score": 0.138}, {"sequence": "GGTTGTGA", "PBM E-score": 0.0269}, {"sequence": "GGCGTCTA", "PBM E-score": -0.00561}, {"sequence": "TTAGACAA", "PBM E-score": -0.0633}, {"sequence": "GCGCTGAA", "PBM E-score": -0.108}, {"sequence": "ATGACCTG", "PBM E-score": -0.0341}, {"sequence": "AAGAAAAA", "PBM E-score": -0.158}, {"sequence": "ACGCACCG", "PBM E-score": 0.00605}, {"sequence": "CGTTGCGA", "PBM E-score": -0.0877}, {"sequence": "TCCAAAGA", "PBM E-score": -0.0808}, {"sequence": "CTACTGAG", "PBM E-score": -0.127}, {"sequence": "CCTCAATA", "PBM E-score": -0.16}, {"sequence": "ATTACTGA", "PBM E-score": -0.354}, {"sequence": "GAGTACCA", "PBM E-score": -0.00397}, {"sequence": "AAACACCT", "PBM E-score": -0.0632}, {"sequence": "TATCGTGA", "PBM E-score": -0.136}, {"sequence": "AGGTGTAC", "PBM E-score": -0.262}, {"sequence": "AGTTCCAT", "PBM E-score": -0.0302}, {"sequence": "CTGATCGC", "PBM E-score": -0.189}, {"sequence": "AATGAGTG", "PBM E-score": -0.0224}, {"sequence": "ATGCGGTC", "PBM E-score": 0.149}, {"sequence": "AAGAATCC", "PBM E-score": 0.16}, {"sequence": "CCCGCCCC", "PBM E-score": 0.243}, {"sequence": "ATCACTAA", "PBM E-score": 0.0244}, {"sequence": "CCATGCGA", "PBM E-score": -0.0116}, {"sequence": "AAGGATGC", "PBM E-score": -0.36}, {"sequence": "CCTGCTAG", "PBM E-score": -0.234}, {"sequence": "ACATCTCG", "PBM E-score": 0.106}, {"sequence": "AGGCATTC", "PBM E-score": -0.135}, {"sequence": "GCTGACTA", "PBM E-score": -0.0345}, {"sequence": "GACGCAAA", "PBM E-score": -0.0213}, {"sequence": "TAGCTTAA", "PBM E-score": -0.135}, {"sequence": "ACTATGCA", "PBM E-score": -0.16}, {"sequence": "TAATATAA", "PBM E-score": 0.145}, {"sequence": "GAAGCGCC", "PBM E-score": 0.171}, {"sequence": "AGCGCGCA", "PBM E-score": 0.152}, {"sequence": "AATCCCTC", "PBM E-score": -0.0615}, {"sequence": "CGAGCTTC", "PBM E-score": 0.0852}, {"sequence": "CCATACTC", "PBM E-score": -0.00759}, {"sequence": "AAGTTGAA", "PBM E-score": -0.187}, {"sequence": "CATTTGCA", "PBM E-score": -0.167}, {"sequence": "ATGTCTCG", "PBM E-score": 0.0854}, {"sequence": "AGAACCTA", "PBM E-score": -0.163}, {"sequence": "AGTTCAAG", "PBM E-score": 0.0135}, {"sequence": "GCCTATGA", "PBM E-score": -0.18}, {"sequence": "ACCATCTA", "PBM E-score": -0.0917}, {"sequence": "GTCACGCA", "PBM E-score": -0.131}, {"sequence": "ACCACCGG", "PBM E-score": 0.344}, {"sequence": "ACTCACTC", "PBM E-score": -0.00058}, {"sequence": "CAGCAAGC", "PBM E-score": -0.258}, {"sequence": "CACCACTC", "PBM E-score": 0.0624}, {"sequence": "AGCGGCAA", "PBM E-score": 0.0491}, {"sequence": "GAGCCCCA", "PBM E-score": -0.0262}, {"sequence": "AATTGAAC", "PBM E-score": -0.129}, {"sequence": "CCATACAG", "PBM E-score": -0.185}, {"sequence": "ACCCCTGG", "PBM E-score": -0.0916}, {"sequence": "ACTATAGA", "PBM E-score": -0.0706}, {"sequence": "GCCATAAA", "PBM E-score": 0.0924}, {"sequence": "AATCCAAT", "PBM E-score": -0.0573}, {"sequence": "GGTAAACC", "PBM E-score": 0.104}, {"sequence": "TAAGGCGA", "PBM E-score": -0.0281}, {"sequence": "ACCTTACT", "PBM E-score": 0.105}, {"sequence": "GATGGATA", "PBM E-score": -0.0946}, {"sequence": "AATGCGAA", "PBM E-score": 0.0401}, {"sequence": "GTACGTAA", "PBM E-score": -0.116}, {"sequence": "AACAGAGT", "PBM E-score": -0.196}, {"sequence": "CCCAAGAA", "PBM E-score": -0.177}, {"sequence": "ATAACTCG", "PBM E-score": 0.205}, {"sequence": "GTTATAAC", "PBM E-score": 0.162}, {"sequence": "ACCTTACG", "PBM E-score": 0.0388}, {"sequence": "GGATATTA", "PBM E-score": 0.344}, {"sequence": "AGATGCAT", "PBM E-score": -0.129}, {"sequence": "CAACTCAG", "PBM E-score": -0.105}, {"sequence": "AACGTCGG", "PBM E-score": 0.177}, {"sequence": "ATAGCTTA", "PBM E-score": -0.151}, {"sequence": "CATGATGC", "PBM E-score": -0.199}, {"sequence": "ATGGCTAG", "PBM E-score": -0.139}, {"sequence": "AGGAGACC", "PBM E-score": -0.0433}, {"sequence": "CGTGTGCC", "PBM E-score": -0.16}, {"sequence": "ATGGCGCG", "PBM E-score": 0.0751}, {"sequence": "GCAGCCCC", "PBM E-score": 0.161}, {"sequence": "CCGTGCGC", "PBM E-score": 0.181}, {"sequence": "ATTTTCAG", "PBM E-score": 0.00634}, {"sequence": "GCTAGCCC", "PBM E-score": 0.00246}, {"sequence": "TCGACAAA", "PBM E-score": 0.0335}, {"sequence": "ATCCTCTA", "PBM E-score": -0.221}, {"sequence": "GGTAAGAA", "PBM E-score": -0.0886}, {"sequence": "AGTAATGC", "PBM E-score": -0.0163}, {"sequence": "AACCGAGA", "PBM E-score": 0.236}, {"sequence": "CGAGGCTC", "PBM E-score": 0.0721}, {"sequence": "CACGCGGG", "PBM E-score": -0.0168}, {"sequence": "CTAGCGGA", "PBM E-score": 0.28}, {"sequence": "GTAAACCA", "PBM E-score": -0.00443}, {"sequence": "ATTCGTAG", "PBM E-score": -0.177}, {"sequence": "CTCCCCAC", "PBM E-score": -0.197}, {"sequence": "AGCCGAAT", "PBM E-score": 0.267}, {"sequence": "AACGCTGG", "PBM E-score": -0.128}, {"sequence": "ACGTATTC", "PBM E-score": -0.0867}, {"sequence": "CCTTATCG", "PBM E-score": 0.241}, {"sequence": "GCTTCGCC", "PBM E-score": 0.106}, {"sequence": "AGGTACGC", "PBM E-score": -0.0652}, {"sequence": "ACTTGCGG", "PBM E-score": 0.0305}, {"sequence": "ACCAGCTG", "PBM E-score": -0.227}, {"sequence": "TACGTACA", "PBM E-score": -0.0577}, {"sequence": "AAGTCAGG", "PBM E-score": 0.00026}, {"sequence": "CATATCAA", "PBM E-score": -0.114}, {"sequence": "GGCCCCAA", "PBM E-score": -0.0333}, {"sequence": "CGCTAGGC", "PBM E-score": -0.0881}, {"sequence": "AAGATAGA", "PBM E-score": -0.195}, {"sequence": "CAGGTATA", "PBM E-score": -0.214}, {"sequence": "ATCCAGAG", "PBM E-score": -0.102}, {"sequence": "GTGCAAAA", "PBM E-score": -0.126}, {"sequence": "GAACCACC", "PBM E-score": 0.141}, {"sequence": "AGTCAGCG", "PBM E-score": -0.0462}, {"sequence": "TCCCCTAA", "PBM E-score": -0.0455}, {"sequence": "TCGCAAGA", "PBM E-score": -0.0283}, {"sequence": "CTTGACGC", "PBM E-score": -0.0589}, {"sequence": "GTCGGAGA", "PBM E-score": 0.355}, {"sequence": "ACTGCTGC", "PBM E-score": -0.0718}, {"sequence": "CACCCAAA", "PBM E-score": -0.047}, {"sequence": "ACCAATAA", "PBM E-score": -0.136}, {"sequence": "CTGCGTAA", "PBM E-score": -0.0618}, {"sequence": "CTTTTGCA", "PBM E-score": -0.0944}, {"sequence": "TCCAGGAA", "PBM E-score": -0.0908}, {"sequence": "CCATAGGA", "PBM E-score": -0.258}, {"sequence": "AAATTCAG", "PBM E-score": -0.0685}, {"sequence": "CTTCAATC", "PBM E-score": -0.0343}, {"sequence": "ACATTAAT", "PBM E-score": 0.0268}, {"sequence": "CGGAGGGC", "PBM E-score": 0.164}, {"sequence": "AACCTAGC", "PBM E-score": -0.025}]}]}
